Data on 167 variants can be found in the RNAGym collection of RNA variant scans (doi:10.1093/nar/gkz1192).

Sequences and labels used below:
B1: CPEB3 Ribozyme (parent)
chain: UAACAGGGGGCCACAGCAGAAGCGUUCACGUCGCAGCCCCUGUCAGAUUCUGGUGAAUCUGCGAAUUCUGCUGUAUAUCUC

The source gives no read counts; variants with many changes may rest on few reads.

The variants in this data set derive from B1. Description: self-cleavage, relative activity (ratio to wild type); higher = more cleavage; in vitro, sequencing. In a few lines: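 Relative activity was defined as the cleaved/total read fraction for a variant divided by the same fraction for the unmutated ribozyme. CPEB3 self-cleaving ribozyme libraries were made by rounds of error-prone PCR, barcoded, and transcribed in vitro with T7 RNA polymerase for 5 hours at 37°C, and cleavage ran through transcription plus a 15 min DNase I step before EDTA. Illumina sequencing of template-switched reverse transcripts gave the reads, and DNA sequencing mapped the barcodes. Averages come from three batches, using variants with at least 5 reads.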
On to A15G U26A C34U C37U C38U U69C, for which the self-cleavage was determined as 0.05.
Turning to A15G U41C U58C C62U A64U A75G, the self-cleavage is 0.14.
On to A15U A21G U51C, for which the self-cleavage worked out at 0.31.
To A15G U26A U41C A57G belongs 0.52.
Turning to A15U A20U U60C A64G U80A, the self-cleavage is 0.09.
As for A15U A18G U26C A57G, the self-cleavage worked out at 0.2.
With A15G U67C U74C, the self-cleavage is 0.18.
With A15G U26C A45U U66A, the self-cleavage is 0.07.
As to A15U A18G A21G U31A U41C, the self-cleavage stood at 0.24.
To A15G U54A C68A belongs 0.16; to A15G U26A U49C U80A, 0.3.
Regarding A15G U25C C39U, the self-cleavage was found to be 0.1.
For A15G U25C G53U the value was 0.11.
In the case of A15G U25C G53A, the self-cleavage is 0.56.
A15U A20G C23U C32U U51C G70A U72A: the self-cleavage was 0.08.
To A15G U26C U43A U51C A57G U74C belongs 0; to A15G U43C U66C U78C, 0.14.
Consider A15G U43G U69C G70A, for which the self-cleavage came out at 0.09.
To A15U A18U U51A U76C belongs 0.23; to A15G U51C A65G U66C, 0.45; to A15G U51C U72A, 0.29.
On to A15G U25A U31G A35U A47G A57G U58C, for which the self-cleavage worked out at 0.
For A15G U48C A56G U80A, the self-cleavage came to 0.12.
As to A15G U54A A56C U80C, the self-cleavage is 0.53.
As to A15G U26A U41C U51C U76G, the self-cleavage turned out to be 0.62.
Consider A15G U25C U31C, for which the self-cleavage worked out at 0.45.
Consider A15G U31A A47U U66C, for which the self-cleavage turned out to be 0.04.
For the variant A15G U60C G73C, the self-cleavage was 0.52.
For the variant A15G U26G C40A U41C, the self-cleavage amounted to 0.06.
To A15U A18G A64U U67A belongs 0.12; to A15U A28G U43C A45U U67C, 0.13.
As for A15G U26A U54C A57G G63A A75G, the self-cleavage is 0.43.
Turning to A15U A21U U25G A28C G30A C37U, the self-cleavage came out at 0.05.
In the case of A15G U41C U49C, the self-cleavage amounted to 0.24.
As to A15G U31C U49C A56G, the self-cleavage was determined as 0.3.
Turning to A15G U51C U76C, the self-cleavage was found to be 0.73.
As for A15G U25C A57G, the self-cleavage worked out at 0.26.
As to A15G U26C U48C A57U, the self-cleavage came to 0.05.
To A15U A18G A20G A28U A45G U60C U78A belongs 0.08; to A15U A20G A35U A45G U72G, 0.08.
Turning to A15G U41C A64G, the self-cleavage is 0.61.
To A15G U26C C34A U49A A77G U80C belongs 0.06.
Turning to A15G U54C U66G, the self-cleavage worked out at 0.77.
For the variant A15G U48A U60A U80G, the self-cleavage worked out at 0.12.
For the variant A15U A18G U31G U58C U67C, the self-cleavage was 0.09.
A15G U51A U76C: the self-cleavage came out at 0.49.
For A15U A18U U41C the value was 0.24.
In the case of A15G U26A A56U G61C, the self-cleavage was found to be 0.16.
For A15G U25A U49C, the self-cleavage came to 0.07.
Regarding A15G U26C A28G U69A A77G, the self-cleavage worked out at 0.17.
Turning to A15U A18G A28U U60C U66C, the self-cleavage was 0.09.
To A15G U25G A56C A57G U67A belongs 0.06.
As for A15G U41C C50G A64G, the self-cleavage was found to be 0.06.
For the variant A15G U41C U58C U60A, the self-cleavage turned out to be 0.23.
Regarding A15G U25C A45G U80G, the self-cleavage is 0.33.
Take A15U A28G U66A G73C: the self-cleavage was found to be 0.18.
To A15U A21G C32U A47C U49C G55C U69A belongs 0.07.
With A15U A21G G73A U78A, the self-cleavage was 0.87.
For the variant A15G U31A A56U A64G, the self-cleavage is 0.25.
Take A15U A18G A20U U31A U78C: the self-cleavage worked out at 0.05.
For the variant A15U A20G U67A U76C, the self-cleavage turned out to be 0.23.
In the case of A15G G70A U80C, the self-cleavage is 0.32.
Consider A15U A18U U31G A64G A77U U80C, for which the self-cleavage was 0.16.
Regarding A15G U26A U31A C37A U49C A57G, the self-cleavage was 0.23.
For A15G U25C U31C U49A, the self-cleavage was determined as 0.07.
For A15U A18G U41C A47G A57G U66A, the self-cleavage was 0.
Regarding A15U A28G U31C U41C, the self-cleavage came to 0.16.
In the case of A15G U41C G52C, the self-cleavage came out at 0.85.
Regarding A15G U41G A57G U80C, the self-cleavage worked out at 0.39.
A15U A20G U25C U54C U74A: the self-cleavage was found to be 0.08.
Regarding A15G U58A U67C, the self-cleavage was determined as 0.16.
To A15G U74C A75G belongs 1.05; to A15G U25A A35G U66C A75G, 0.02.
For A15U A18U G33A U58C U67C U76C, the self-cleavage is 0.04.
For A15G U26G C32A A56U U60C, the self-cleavage is 0.06.
With A15G U74C U78C, the self-cleavage was 1.03.
For the variant A15G U41C U43C A45G, the self-cleavage was 0.14.
With A15G U25C U26C A28U U78A, the self-cleavage came to 0.19.
For A15U A20G A65U U67C U72C the value was 0.15.
For the variant A15G U54C U76A, the self-cleavage came to 0.36.
For A15U A18U U80A the value was 0.29; for A15U A21G U31A A56U, 0.27; for A15G U66C U67C, 0.33.
Take A15G U31C A45G U48C A77U: the self-cleavage stood at 0.16.
Turning to A15G U41C A77U U78C, the self-cleavage amounted to 0.93.
As for A15G U25C U43A A64U U66C, the self-cleavage worked out at 0.2.
Consider A15G U26C U58C U69A, for which the self-cleavage amounted to 0.21.
As for A15G U41A C62A U69A, the self-cleavage is 0.12.
In the case of A15G G63U U72C, the self-cleavage stood at 1.25.
On to A15U A21G U25C, for which the self-cleavage turned out to be 0.1.
Regarding A15G U26A A28C A56G, the self-cleavage came to 0.21.
For A15G U51A U58A the value was 0.3; for A15G U54C U67A, 0.4.
To A15G U26A A35U U41C A57G belongs 0.31.
Take A15G U31A A64U: the self-cleavage was 0.42.
For A15G U25A U58C the value was 0.21.
To A15G U25C C29A C38G belongs 0.15; to A15G U31A U41A U43A U54C U76C U78A, 0.07.
Take A15G U48C G61U: the self-cleavage is 0.16.
Turning to A15U A18G A20G U41A A56G U60A, the self-cleavage was 0.03.
Take A15G U26G U41C U48C A65G U67C: the self-cleavage amounted to 0.
For the variant A15G U25C U41C U72C, the self-cleavage was 0.21.
In the case of A15U A28U G70A, the self-cleavage stood at 0.11.
To A15U A28G G36A U41A A75G belongs 0.13; to A15G U26C U54C U58C U60A, 0.34.
To A15G U58C A64G belongs 0.27; to A15U A20G A35U U69C A75C, 0.14; to A15G U26A A35C U41A U51C U74A, 0.1.
Take A15U A21U U31A A45G U58C: the self-cleavage turned out to be 0.09.
As for A15G U25C A64G, the self-cleavage came to 0.11.
Take A15U A28G U48C U66C U72C: the self-cleavage is 0.16.
A15G U69A A75G: the self-cleavage stood at 0.15.
To A15G U26A A45C G63A U67C A75G belongs 0.04.
On to A15G U26C G55A, for which the self-cleavage is 0.29.
For A15G U72C U76C, the self-cleavage was 1.22.
For A15G U31A A45G, the self-cleavage worked out at 0.28.
To A15U A18G U49C A56G U76A A77G belongs 0.21; to A15G U43A A65G, 0.36; to A15G U60A A64G, 0.64.
On to A15G U43A U60C U72C U78C, for which the self-cleavage came to 0.75.
As for A15U A20G A28G U43C U51C U72A U78C, the self-cleavage stood at 0.1.
For A15G U41G U51C U72A U80C, the self-cleavage is 0.21.
With A15G U49G A56U U80A, the self-cleavage came out at 0.94.
For A15U A20U U25C A28G U54A the value was 0.17; for A15G U26A U49A A56U A57G A64G, 0.19; for A15G U48C U66C, 0.34.
For the variant A15G U48C U80A, the self-cleavage was 0.58.
For the variant A15U A18U G33U C38U U54C, the self-cleavage worked out at 0.17.
To A15U A21C A56G G61A C71U U72C belongs 0.06.
For the variant A15G U51C C62U U66C, the self-cleavage is 0.34.
Regarding A15G U25C C68G U72C U80C, the self-cleavage was found to be 0.21.
To A15U A20G G22U U43C U74A belongs 0.19; to A15G U41A C68A, 0.15; to A15G U41C A45U G63A C68A, 0.17.
For A15G U41C U49C U69A the value was 0.14.
Consider A15G U41C U51C U72C, for which the self-cleavage came to 1.16.
In the case of A15G U41A U43C A57G, the self-cleavage worked out at 0.12.
Regarding A15G U41C A77G, the self-cleavage came to 1.06.
In the case of A15G U26C U31A, the self-cleavage amounted to 0.34.
On to A15G U31C G33A A45G A57G U66C U80C, for which the self-cleavage was 0.15.
For A15G G73A U74A, the self-cleavage was determined as 1.17.
As to A15U A18U U54C C71A U74A A75U, the self-cleavage stood at 0.09.
To A15U A18U U31A A56G A64G belongs 0.12.
Consider A15G U41C A57G U74C, for which the self-cleavage stood at 0.76.
Consider A15G U43C A45U C59U U78C, for which the self-cleavage came to 0.08.
As to A15G U58C U60A, the self-cleavage amounted to 0.14.
Consider A15U A28G A57G U60A, for which the self-cleavage is 0.09.
As to A15G U60C U78C, the self-cleavage was found to be 0.39.
Take A15G U49A U67A: the self-cleavage is 0.3.
For the variant A15G U43A A65G U72A U80A, the self-cleavage is 0.36.
Consider A15G U69C U78C, for which the self-cleavage worked out at 0.2.
To A15G U31A A64G U69A A75G belongs 0.08; to A15G U26A U51C A57U, 0.24; to A15U A20G A35G U60C, 0.44.
A15G U31C U51C A57U U60C: the self-cleavage came out at 0.11.
Consider A15G U49C A57U A64G, for which the self-cleavage was 0.07.
As to A15U A18G U43G G70A, the self-cleavage stood at 0.24.
For the variant A15U A21G U43A U51A, the self-cleavage is 0.38.
For A15U A21G U26A C29U U43C U60A, the self-cleavage came to 0.03.
For A15G U26C U31C G33U, the self-cleavage stood at 0.22.
Turning to A15G U25C U31C C32U, the self-cleavage amounted to 0.3.
As to A15G U26C U43A A56G, the self-cleavage came out at 0.11.
For the variant A15G U31C U54C, the self-cleavage came to 0.22.
As to A15U A28G A35U C62A G73C, the self-cleavage was 0.31.
A15U A20U A35U U43C U51A U60A: the self-cleavage turned out to be 0.1.
For the variant A15G U26C A64C A65C, the self-cleavage was 0.17.
As for A15U A18G C68U, the self-cleavage is 0.28.
